According to ChEMBL document CHEMBL4888484, “Replenishing the malaria drug discovery pipeline: Screening and hit evaluation of the MMV Hit Generation Library 1 (HGL1) against asexual blood stage Plasmodium falciparum ,using a nano luciferase reporter read-out” (2022):
Screen size: about 4,800 compounds; about 410 (8.5%) showed an effect of 50% or more. Some of the results follow.

The molecules below were run on Plasmodium falciparum (assay: Confirmatory screen in NF54 pLDH assay, in single point, at 2uM, 72h). Conditions: timepoint 72 hour.
Type: functional, Erythrocyte

SMILES | % Inhibition [%]
Cc1ccc(C)n1-c1ccc(Cl)c(C(=O)NC[C@H]2COCCO2)c1 | -3
CC(C)(C(=O)Nc1nccs1)c1cccnc1 | 10
O=C(NCc1ccccc1F)C1CCN(c2cncnc2N2CCCC2)CC1 | 19
COc1ccc2oc(-c3ccc(CNC(=O)c4ccc(C)cc4)cc3)nc2c1 | 13
Cc1nn(C)c(C)c1-c1cc(C(=O)Nc2cc(F)ccc2F)c2c(C)nn(C)c2n1 | 2
Cc1ccccc1-c1nc2cc(NS(=O)(=O)c3ccccc3)ccc2o1 | 6
Fc1cccc(Br)c1C1CC(c2cccnc2)Nc2ncnn21 (centres undefined) | -8
O=S(=O)(c1ccccc1)c1cnc2c(Br)c(-c3ccccc3)nn2c1-c1ccccc1 | -20
COc1ccccc1-c1n[nH]cc1CN1CC(=O)NCC12CCCC2 | -9
CCCOc1cccc2c(NC3CCN(CCOC)CC3)ccnc12 | 48
CCC[C@H](C)c1cc(NS(=O)(=O)c2cnn(CC)c2)[nH]n1 | 10
CC1CC(NS(=O)(=O)CCCC(F)(F)F)CCN1 (centres undefined) | -1
O=C(Cn1ccsc1=O)c1cccc(Cl)c1Cl | -19
Cc1ccc(CNC(=O)CCCC(=O)NCc2ccccc2)o1 | -16
CCN(CC)c1ccc(N2C(=O)c3c(Br)c(Br)c(Br)c(Br)c3C2=O)cc1 | 12
CCn1cc(-c2cc(C(F)(F)F)nc(N3CCCC3)n2)cn1 | 10
COc1ccc(-n2nc(C(=O)N3CCOCC3)c(=O)cc2OC)cc1 | 3
CCOc1ccc(C2c3[nH]c4ccccc4c3C[C@H]3C(=O)N(C4CCN(Cc5ccccc5)CC4)CC(=O)N23)cc1OC (some centres undefined) | 79
CC(C)[C@H](NC(=O)C(F)(F)F)C(=O)NC1CCN(c2ccccc2Cl)C1=O (some centres undefined) | -7
CCOc1ccc2ccccc2c1C(=O)Nc1cc(C)nn1-c1nc2c(c(=O)[nH]1)CCC2 | 91
Cc1cccc(C(=O)ON2C(=O)CCC2=O)c1 | -14
CN1C(=O)c2ccc(S(=O)(=O)NCCn3ncnn3)cc2C1=O | 4
O=C1c2ccccc2[C@@H](Nc2ccc3c(c2)OCCO3)N1c1ccccn1 | -8
COc1ccc(-c2nc(-c3cccc(-c4nnc(N)o4)c3)sc2C)c(OC)c1 | 12
CS(=O)(=O)N1CCC[C@H](Cn2nnnc2C=Cc2ccccc2)C1 | 8
Cc1noc(C)c1CN1CCCN(C(=O)c2n[nH]c3ccccc23)CC1 | 7

SMILES | % Inhibition [%]
CCCCOc1ccc(-c2ccc(C)cc2)cc1[C@H]1Nc2ccccc2C(=O)N1c1ccccc1 | 10
c1cc([C@@H]2CN(Cc3noc(C4CC4)n3)CCO2)cs1 | 7
CCc1ccc(CN2CCC[C@H](c3ncc[nH]3)C2)nc1 | 52
COc1ccccc1-n1c(=O)n(C2CCCC2)c(=O)c2c1ncn2Cc1ccccc1Cl | 34
O=C(CCc1nc2ccccc2c(=O)[nH]1)Nc1ccc(-n2cnnn2)cc1 | 6
O=S1(=O)c2ccccc2N=NN1Cc1ccc(Cl)cc1 | -19
CN(C)c1ccc2cc(NC(=O)CCc3cnn(C)c3)ccc2c1 | -5
c1cnc2nc(-c3ccc4c(c3)OCO4)cn2c1 | -1
CCc1nc(C)ncc1C(=O)OCc1nccn1Cc1ccccc1 | 7
Cc1cccc(NC(=O)CCC(=O)OCC(F)(F)C(F)F)c1C | 1
O=c1sc2c(n1Cc1csc(C3CCCCC3)n1)CCCC2 | 10
Cc1cc(N2C(=O)CCS2(=O)=O)ccc1S(=O)(=O)NC1CCCC1 | 9
CN1CCN(c2nc(O)c3c(n2)NC(=O)C[C@H]3c2c(F)cccc2Cl)CC1 | -6
Nc1cc(Br)c(C(F)(F)F)cc1NC(=O)C(F)(F)F | 5
Cc1cc(C(=O)NCc2ccco2)nn1C(F)F | 7
COc1ccnc(CN2CCC[C@H](c3nc(-c4ccccc4)c[nH]3)C2)c1OC | 82
Cc1ccc(N2C(=O)CN(CC(C)C)[C@H]3CS(=O)(=O)C[C@H]32)cc1 | 14
Cc1cccc2[nH]cc(CCNC(=O)N3CCC4CCC(C3)N4C)c12 (centres undefined) | 11
CC(C)c1ncsc1C(=O)NC(C)(C)C(=O)NCC1CCCC1 | -5
O=S1(=O)C[C@H](N2CCN(c3ccccc3F)CC2)[C@@H](S(=O)(=O)c2ccccc2)C1 | -4
CCc1nnsc1C(=O)NC1CCCCCC1 | 10
COc1ccccc1CC(=O)N(c1nc(C)cs1)C1CC1 | -8
O=C(N[C@@H](CN1CCCC1)c1ccccc1)N1CCC(c2ccn[nH]2)CC1 | 43
N#Cc1c2ccc(O)cc2n2ccccc12 | -10
O=C(Nc1cccnn1)N[C@@H](c1ccccc1)c1ccc2c(c1)CCCO2 | -20
CCc1c(C)nn(S(=O)(=O)c2ccc3ccccc3c2)c1O | -3

SMILES | % Inhibition [%]
COc1ccc2c(c1)CN(C(=O)C1CC3CCC1C3)CC2 (centres undefined) | 11
c1ccc(-c2ccc(-n3nnnc3-c3ccccc3)cc2)cc1 | -8
COCCN(CC1CN(Cc2ccsc2)CC1c1cccc(F)c1)C(=O)C(C)C (centres undefined) | -1
Cn1c(=O)c2sc(N3CCCC3)nc2n(CC(=O)NC2CCCC2)c1=O | 4
[O-]c1c(-c2ccccc2)sc2[n+]1ccc1sc(-c3ccccc3)c([O-])[n+]12 | -16
CN(C)CCCNCc1ccccc1F | 10
COc1ccc(-c2nn3c(N4CCN(CC=Cc5ccccc5)CC4)cc(C)nc3c2C)cc1OC | 40
CC(C)(C)c1ccc(-c2ccc(C(=O)NCC3(O)CCOCC3)o2)cc1 | 5
COCCN(CC1CN(Cc2ccc(C)o2)CC1c1cccc(F)c1)C(=O)C(C)C (centres undefined) | -8
O=C1N[C@@H](CC(=O)N2CCN(c3ccccn3)CC2)C(O)=Nc2ccccc21 | 6
O=C(NCc1noc2c1CCCC2)NC[C@H]1CCCC1(F)F | 5
O=C(N[C@@H](Cc1ccccc1)C(=O)NC1CC1)c1cccnc1 | 6
Cc1ccc(N2CCN(C(=O)c3ccco3)[C@@H](C)C2=O)c(C)c1 | -11
Brc1ccc2c(c1)CN(Cc1c[nH]cn1)CCO2 | 4
c1csc(-c2noc(Cc3c[nH]c4ccccc34)n2)c1 | -5
CCCCCn1c(NCc2cc(Cl)ccc2O)nc2ccccc21 | 21
CCO[C@@H](C)C(=O)Nc1cnns1 | 2
COc1cc(OC)cc(C(=O)Nc2ccc3nc(N4CCC(C)CC4)cc(C)c3c2)c1 | 40
CCOc1cc(Cl)ccc1C(=O)NC1CCN(C[C@H]2CCOC2)CC1 | 5
O=S1(=O)N=C(n2ccnc2)c2ccccc21 | -17
C=CCNC(=O)CCC(=O)NCc1ccco1 | 13
N#Cc1cnc(NC2CC3CCC2C3)cn1 (centres undefined) | -7
COc1ccc(S(=O)(=O)N(CC(=O)N2CCN(Cc3ccc4c(c3)OCO4)CC2)C2CCCCC2)cc1OC | 6
Cc1nc(COC(=O)c2c[nH]nc2-c2c(F)cccc2F)no1 | 7
Cc1cc(C)n(NC(=O)CCn2nc(C(F)(F)F)c(Br)c2C2CC2)c(=O)c1 | 10
Cc1cccc(Cn2ccn3nc(-c4cccc5ccccc45)cc3c2=O)c1 | -6

SMILES | % Inhibition [%]
Cc1cc(C)c(NC(=O)CN(C)C(=O)NCc2ccco2)c(C)c1 | -8
CCNC(=O)N1CCCC[C@@]1(C)c1noc(-c2ccc(F)cc2)n1 | 11
Cc1cc(NC(=O)c2c(C)sc3ncnc(N4CCCC4)c23)ccc1F | 7
COc1ccc(OC)c(Nc2cc(C)nc3nnnn23)c1 | -6
Cc1noc(C2CCN(CC(=O)Nc3ccccc3C(=O)NCC(C)C)CC2)n1 | 1
CC(C)(C)NC1=Nc2ccccc2N[C@]12CCCN(C(=O)COc1ccccc1)C2 | -15
CCS(=O)(=O)Nc1cc2c(C(C)=O)c(C)oc2cc1C | 7
CCOC(=O)c1cnn(C)c1S(=O)(=O)N1CCCCC1 | 2
COc1ccc([C@H]2[C@H](C(=O)NC3CCCCCC3)CCC(=O)N2C)cc1 | -16
CCc1nnc2ccc(S(=O)(=O)Nc3ccc(Cl)cc3)cn12 | 14
CCc1cc(C(=O)N2CCC3(CC2)C[C@H](c2ccccc2)C(=O)N3C)no1 | -4
COc1cccc(S(=O)(=O)N2CCCN(Cc3ccncc3)[C@H](c3ccccc3)CC(=O)NCC2)c1 | 86
Cc1nsc(N[C@@H]2C=C[C@H](CO)C2)n1 | 7
COc1cccc2c(N3CC[C@]4(CNC(=O)C4)C3)nccc12 | 2
Fc1ccccc1N1CCN(c2c3c(nc4nc(Cc5ccc(Cl)cc5)nn24)CCCC3)CC1 | 7
CN1CCCC(CN2C(=O)C3CCCN3C2=O)C1c1cccc(Cl)c1 (centres undefined) | -5
CCn1nc(C)c(CN(C)S(=O)(=O)c2ccc(N3CCCC3=O)cc2)c1C | -1
O=C(CC1COCCN1C(=O)C1CCc2ccccc21)c1ccco1 (centres undefined) | -17
c1ccc(Oc2ccc(CNCc3nnc4n3CCCCC4)o2)cc1 | 9
CC(C)(C)OC(=O)NC1CCCN(CC2CN(c3ccc(F)cc3)C(=O)O2)C1 (centres undefined) | -8
O=C(CN1C(=O)c2ccccc2C1=O)N1CC(=O)N2CCc3ccccc3[C@@H]2C1 | 12
Cc1ccc(C)n1[C@@H](CC(=O)O)c1ccco1 | 3
O=C(CN1C(=O)[C@H]2CCCC2=Nc2ccccc21)NCCCc1ccccc1 | -17
Cc1nnc(CC(=O)NC2CC(OCc3ccccc3)C2(C)C)o1 (centres undefined) | 8
Cc1ccc(C(=O)Nc2cc3c4c(c2)C2CCCC2CN4CC2CCCC32)cc1 (centres undefined) | 54
COc1ccc(N(C)S(=O)(=O)c2ccsc2-c2nc(-c3cccnc3)no2)cc1Cl | -2
